Laboratory results as given in the supplement of paper PMC11417369.
The list shows a part of the results.

Tested on: PfSIP2 AP2 domain 1 (GST-tagged)
Test: gcPBM binding intensity (ln(normalized median fluorescence intensity)); higher = stronger DNA binding
Procedure, shortened: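 Binding intensity is the highest Masliner-normalised natural-log median intensity over replicate spots in either probe orientation. To obtain it, GST-tagged P. falciparum DNA-binding domains made in E. coli were incubated for 1 h on an Agilent 4 × 180k array of primer-extended double-stranded 36-bp intergenic genomic probes plus negative controls. Detection used Alexa488 anti-GST antibody with scanning at 488 nm.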

| Sequence | gcPBM binding intensity (ln) |
| --- | --- |
| ATATATATATCACGCACACACGAATTTTAAATATAT [CACACA_site5691] | 8.34 |
| TTATTTTTACAATTTTAATAATAATACTAAAACAAA [XGTACX_negctrl_site538] | 6.93 |
| TCTTTTGCCCAAAAAGGTACACACCACAATTTAAAT [XGTACX_site1482] | 7.4 |
| TATTGTATGGTAGGATATGATGTTATTTGTTATAAT [CACACA_negctrl_site202] | 6.92 |
| AATTATAGCTGTATCTGTACGCATTTATTTATAGAC [XGTACX_site5959] | 7.16 |
| GAAAGGGCAGGAACTATTAATACACTGATCGATAAG [CACACA_negctrl_site1458] | 6.87 |
| TTAAATAATATTAGCCGTACAATTTAAAGATAATAA [XGTACX_site8503] | 6.89 |
| TTTAATACTTTATATGCATGCAGAGAAAAATGCTTG [TGCATGCA_site286] | 6.96 |
| TTTGAAATATATTTAGTGCATATATATTGATTATAA [GTGCAC_site9604] | 9.71 |
| ATACATATAGGATGCACACATAATTCAAATACAATA [CACACA_site651] | 7.73 |
| ATGAATATAATGAAGTGTACATAAAAATAATAAATA [XGTACX_site2481] | 7.11 |
| CAATTTTGCCCTTCCTGTACATATATTGAAAAATAT [XGTACX_site6388] | 7.27 |
| ATCTAGTACATACATACACACAACAATGTTATGAGA [CACACA_site3989] | 7.16 |
| TAAATATTTATAAACACACAAATATTTATATTTATA [CACACA_site6166] | 6.91 |
| AAATAGAGAAATACAAGTACATATCAAACCAATCTA [XGTACX_site2756] | 6.73 |
| TTTATTTATTAATACACACACACACGCCCACAAAAT [CACACA_site6253] | 7.57 |
| AGGGACATATATATCACACACAAAAATTAGTCCCTT [CACACA_site2778] | 6.87 |
| TAAAAATATAGGTATACACACATATAAATATAAATA [CACACA_site7785] | 6.89 |
| CTTATACATAAATTTTGTACACACAAAAAAAAAAAA [XGTACX_site2665] | 7.43 |
| GATTTTAAAATAATTACACACTTGATTATGTCCAAA [CACACA_site3491] | 6.9 |
| ATAAATATAAATATATGTACATATATATATATATAT [XGTACX_site7433] | 9 |
| AAGACACAAAAACACACACACATACATACATACATA [CACACA_site454] | 7.19 |

| Sequence | gcPBM binding intensity (ln) |
| --- | --- |
| TATGTTGATGATGATAGTACATATGAGTTCAAAAAA [XGTACX_site7712] | 7.06 |
| TGTTTTGTTGTGTATTGTACTAATATAAATATATAA [XGTACX_site1852] | 7.41 |
| TAAAAAAACGCACTCGTACACACATATTTTCTTTCT [CACACA_site3090] | 8.53 |
| TTTTATGATTGACACACACACAAAAAAAAAAAAAAA [CACACA_site7860] | 7.05 |
| TATATTTGGAAAACATGTACATATAACAATATGTAA [XGTACX_site324] | 7.09 |
| AATAAAAAAGGAAACAAATTAATATATATATATATA [CACACA_negctrl_site467] | 9.1 |
| AAAAAAAGAAATAATAAAAAATATATATATATATAT [GTGCAC_negctrl_site702] | 9.47 |
| CGTACATAATTTTAATCACACACAAACAAACACATA [CACACA_site7947] | 7.24 |
| ACAAAATGTAAATAAACACACATATTTATATTTATA [CACACA_site6719] | 6.93 |
| TTGGTGGATAAATTTACACACAATAATTTTCGTTCA [CACACA_site467] | 6.8 |
| AATAAAATATTATGTGCATGCTGTTTTATTTATTAA [TGCATGCA_site102] | 6.97 |
| AATTCACCAAAAAAAGTGCATATTCAATATATATTA | 8.66 |
| TAAAACAAAACAAAAATAGGATTATATTCCTTTTTT [CACACA_negctrl_site1003] | 6.46 |
| ATAATTTCAATATTTAATATCATATATATATATTTT [GTGCAC_negctrl_site713] | 6.94 |
| ATATATATATATATATGTACATATGTGTATATAACT [XGTACX_site495] | 9.15 |
| AAATAAAAAAATACCCAACACCATGCCAAATGTGAA [CACACA_negctrl_site411] | 6.73 |
| TAAAATTCGAAAAATTGTACTATTTATATATCTGTA [XGTACX_site6478] | 6.76 |
| TAGTTAGGCCCTACATGTACATAATATATATTACTT [XGTACX_site1137] | 7.22 |
| ATCAACATTACATTTAGTACACATATATTTCTATGT [XGTACX_site4436] | 7.08 |
| TATATAAGTATAAAATGTACATAAAATTTTATGTTA [XGTACX_site2613] | 6.92 |
| CTAATTAATATTTGTACACACATATTTAACCTACTA [CACACA_site3191] | 6.89 |
| TAAAAATTTACATGTTGTACATATAATTATATAATC [XGTACX_site4577] | 6.91 |
